Data taken from PubChem BioAssay AID1745853 (National Center for Advancing Translational Sciences (NCATS), 2022).
Several values for one entry are separate records, joined by “and”; a condition that tells them apart may be missing. Equal entries are not always repeated. The list shows a part of the results. Further columns of the screen follow, without active or inactive calls.

Key:
Test in all cases: Primary Screen for Target Class Profiling of Small Molecule Inhibitors of Methyltransferases
[1] = target: Glycine N-methyltransferase (Homo sapiens) (UniProt Q14749); conditions: purified enzyme, MTase-Glo SAH luminescence; measured here: GNMT inhibition; at 40 µM; stronger effect = lower value
In short: (§1)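 Each enzyme was reacted with SAM and its substrate, with compounds tested once at 40 uM; SAH formed was read by MTase-Glo luminescence.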

[2] = target: Guanidinoacetate N-methyltransferase (Homo sapiens) (UniProt Q14353); conditions: purified enzyme, MTase-Glo SAH luminescence; measured here: GAMT inhibition; at 40 µM; stronger effect = lower value
In short: as §1

[3] = target: Histamine N-methyltransferase (Homo sapiens) (UniProt P50135); conditions: purified enzyme, MTase-Glo SAH luminescence; measured here: HNMT inhibition; at 40 µM; stronger effect = lower value
In short: as §1

[4] = target: Nicotinamide N-methyltransferase (Homo sapiens) (UniProt P40261); conditions: purified enzyme, MTase-Glo SAH luminescence; measured here: NNMT inhibition; at 40 µM; stronger effect = lower value
In short: as §1

[5] = target: Phenylethanolamine N-methyltransferase (Homo sapiens) (UniProt P11086); conditions: purified enzyme, MTase-Glo SAH luminescence; measured here: PNMT inhibition; at 40 µM; stronger effect = lower value
In short: as §1
% is scaled to controls: 0 for no effect and ±100 for the full control effect.

Row | SMILES | activity change, negative = inhibition [1] | activity change, negative = inhibition [2] | activity change, negative = inhibition [3] | activity change, negative = inhibition [4] | activity change, negative = inhibition [5]
1 | O=c1[nH]nc2n1CCN(CC1CCCCC1)CC2 | -1.46% | -0.952% | -1.48% | -1.93% | 17.6%
2 | O=C1CN(Cc2ccccc2F)S(=O)(=O)c2ccccc2N1Cc1ccccc1 | 5.45% | 3.13% | 3.61% | 0.77% | 4.67%
3 | CCC1c2ccc(C)n2CCN1C(=O)NCc1ccccc1 (centres undefined) | -0.683% | 0% | 1.61% | 2.48% | -3.66%
4 | COCC(=O)N1CCC(C2CCN(C(=O)c3ccncc3)CC2)C1 (centres undefined) | -0.585% | 1.67% | -0.065% | -0.451% | -3.05%
5 | CC1OC2OC3C(OCC(O)C3O)OC(=O)C34CCC(C)(C)CC3C3=CCC5C6(C)CC(O)C(OC7OC(CO)C(O)C(O)C7OC7OCC(OC(=O)CC(C)(O)CC(=O)OC1C(OC1OCC(O)C(O)C1O)C2O)C(O)C7O)C(C)(CO)C6CCC5(C)C3(C)CC4O (centres undefined) | -0.547% | 12% | -0.709% | -6.32% | 3.56%
6 | CC1(C)CC[C@]2(C(=O)O)CC[C@]3(C)C(=CCC4[C@@]5(C)CC[C@H](O[C@@H]6O[C@H](CO)[C@@H](O)[C@H](O)[C@H]6O[C@@H]6O[C@H](CO)[C@@H](O)[C@H](O)[C@H]6O)[C@@](C)(CO)C5CC[C@]43C)[C@@H]2C1 (some centres undefined) | -2.38% | -2.43% | 4.48% | -16.2% | 0.11%
7 | CCOCCCNC(=O)C1c2c(n(C)c3ccccc23)SCC(=O)N1c1ccc(C(=O)OCC)cc1 (centres undefined) | 4.84% | 2.3% | 0.844% | 1.23% | 5.28%
8 | CCN1C(=O)c2cc(C(=O)NCc3ccc(OC)c(OC)c3)nn2CC1(C)C(=O)NC1CCCC1 (centres undefined) | -0.166% | 0% | -7.18% | 1.37% | 3.4%
9 | O=C(c1ccncc1)N1CCC(Nc2cccnc2)C1 (centres undefined) | -25.2% | -14.6% | -7.95% | -12.1% | -27.3%
10 | COc1cccc(CN2C(=O)c3ccc(-c4ccco4)n3CC2(C)C(=O)NC2CCCC(C)C2C)c1 (centres undefined) | -0.706% | 0.084% | 3.75% | -11.4% | -1.16%
11 | Cc1ccc(Cn2c(=O)c3ccccc3n3c(-c4cc(Br)cs4)nnc23)cc1 | -4.05% | 1.46% | 1.46% | 3.05% | -4.35%
12 | CCCn1c(=O)c2ccc(C(=O)NC3CCCC3)cc2n2c(=O)n(CC(=O)Nc3ccc(C)c(C)c3)nc12 | -0.522% | 0.648% | -0.465% | -1.54% | 1.09%
13 | O=C(CCc1ccccc1)N1CCC(O)(Cn2cnc3cc(Cl)ccc3c2=O)CC1 | 2.96% | -1.17% | 7.46% | -13.7% | -3.76%
14 | CCCCN1C(=O)c2cc3c(OC)ccc(OC)c3n2CC1(C)C(=O)NC1CCC(C)CC1 (centres undefined) | -4.61% | 4.71% | 2.81% | 0.615% | -0.48%
15 | c1coc(-c2nnc([C@H]3CCN(Cc4c[nH]c5ccccc45)C3)o2)c1 | -4.57% | -5.22% | -38.9% | -12.2% | -21.7%
16 | NC(=O)Nc1cc(-c2cccc(F)c2)sc1C(=O)N[C@H]1CCCNC1 | -5.61% | 5.11% and 5.56% | -20.7% | -29.4% and -28.7% | 0.131% and -8.72%
17 | C[C@H]1CC[C@@]2(OC1)O[C@H]1CC3C4CC[C@H]5C[C@@H](O)CC[C@]5(C)C4CC(=O)[C@]3(C)[C@H]1[C@@H]2C (some centres undefined) | -0.903% | -9.48% | 7.42% | -22.9% | 1.02%
18 | CCOC(=O)CNC(=O)N1CCn2cccc2C1C (centres undefined) | 6.25% | 0% | 12.5% | -3.7% | 6.08%
19 | COc1cc(C[C@@]2(O)CO[C@@H](c3ccc(O[C@@H]4O[C@H](CO)[C@@H](O)[C@H](O)[C@H]4O)c(OC)c3)[C@H]2CO)ccc1O | 1.87% | -1.99% | 7.9% | -13.6% | 4.67%
20 | CCOc1ccccc1CN1C(=O)c2cc3sccc3n2CC1(C)C(=O)NC1CCCC1 (centres undefined) | -5.65% | 2.4% | -10% | -8.67% | -6.26%
21 | CCc1cc2c(cc3n2CC(C)(C(=O)NC2CCC(C)CC2)N(Cc2ccc(OC)cc2)C3=O)s1 (centres undefined) | -4.95% | 3.33% | -2.77% | -2.11% | -2.55%
22 | C=C1/C(=C/C=C2\CCC[C@@]3(C)C2CCC3[C@H](C)/C=C/[C@@H](O)C2CC2)C[C@@H](O)C[C@@H]1O (some centres undefined) | -20.9% | – | -12.1% | – | –
23 | O=C(c1ccc(F)cc1)C1CCN(CCn2c(=O)[nH]c3ccccc3c2=O)CC1 | -21% and -1.68% | -0.24% and -8.09% | -2.58% and 11.5% | -12.9% and -14.6% | -1.39% and -1.31%
24 | C=CC(C)(CCC=C(C)C)O[C@@H]1O[C@H](CO)[C@@H](O)[C@H](O)[C@H]1O (some centres undefined) | 0.5% | -3.62% | 5.93% | -15.7% | 3.64%
25 | CC1=CC2C(CC1OC1OC(CO)C(O)C(O)C1O)C(C)CC(=O)C2C(C)C (centres undefined) | 2.31% | -0.624% | 10.5% | -13.6% | -8.51%
26 | COCCOC1CN(C2CCN(S(C)(=O)=O)CC2)C12CCCCC2 (centres undefined) | -6.02% | -10.5% | -3.12% | -10.9% | -9.91%
27 | CC(C)CCCCC(=O)N[C@@H](CO)C(=O)N[C@@H](CC(C)C)C(=O)[C@@]1(CO)CO1 | 0.46% | 2.49% | 4.71% | -7.77% | -2.23%

Row | SMILES | activity change, negative = inhibition [1] | activity change, negative = inhibition [2] | activity change, negative = inhibition [3] | activity change, negative = inhibition [4] | activity change, negative = inhibition [5]
28 | Cn1c(=O)n(C)c2cc(S(=O)(=O)NCCC(=O)O)ccc21 | 5% | 0% | 8.6% | 11.2% | 2.83%
29 | O=C(NCc1ccco1)[C@@H]1Cc2nc[nH]c2CN1CCCc1ccccc1 | -5.08% | -6.19% | -0.165% | -6.72% | 0.372%
30 | COc1cccc(-c2noc(-c3ccc(-c4cn[nH]c4)nc3)n2)c1OC | -6.85% | -6.81% | -4.78% | -18.7% | -11.8%
31 | C[C@@H]1O[C@@H](O[C@H]2[C@H](O[C@H]3[C@H](O[C@H]4CC[C@@]5(C)C(CC[C@]6(C)C5CC=C5[C@@H]7CC(C)(C(=O)O)C[C@@H](O)[C@]7(C)CC[C@]56C)[C@@]4(C)CO)O[C@H](C(=O)O)[C@@H](O)[C@@H]3O)O[C@H](CO)[C@H](O)[C@@H]2O)[C@H](O)[C@H](O)[C@H]1O (some centres undefined) | -2.69% | -2.71% | 7.67% | -18.9% | 3.18%
32 | O=C(CSc1nnc2n(Cc3ccccc3)c(=O)c3ccccc3n12)Nc1ccccc1F | 1.15% | 0% | 12.4% | 5.95% | 2.68%
33 | Cn1c(=O)n(C)c2cc(S(=O)(=O)Nc3ccc(OCc4ccccc4)cc3)ccc21 | -27.8% | 4.84% | -1.9% | 0.654% | -0.356%
34 | COc1ccccc1-n1cnc2cccnc21 | -2% | 1.11% | -1.77% | -17.2% | 1.29%
35 | O=C(COC(=O)C(Cc1c[nH]c2ccccc12)NC(=O)c1ccc(Cl)cc1)c1ccccc1 (centres undefined) | 3.45% | 0% | -1.79% | -5.42% | -1.18%
36 | COc1ccc(C(O[C@@H]2O[C@H](CO)[C@@H](O)[C@H](O)[C@H]2O)C(CO)Oc2ccc(/C=C/CO)cc2OC)cc1O (some centres undefined) | 0% | -3.04% | -0.096% | -13.8% | 2.91%
37 | CC1(C(=O)NC2CCCCCCC2)Cn2c(cc3occc32)C(=O)N1c1ccc(Cl)cc1 (centres undefined) | -1.8% | 0% | 8.34% | -1.37% | 3.39%
38 | COc1ccc(OC)c(S(=O)(=O)N2CCc3nc(-c4ccc(F)cc4)ncc3C2)c1 | 13.3% | 2.34% | 11.1% | 6.56% | 9.98%
39 | CCCCNC(=O)CCc1nnc2n(Cc3ccc(Cl)cc3)c(=O)c3ccccc3n12 | 1.94% | 4.18% | 4.74% | 7.64% | 1.64%
40 | CC12C(=O)OC(=O)C1(C)C1CCC2O1 (centres undefined) | 7.85% | 12.2% | 13.2% | -1.4% | 2.35%
41 | CC(C)Cn1c(=O)c2ccccc2n2c(CCC(=O)N3CCC(Cc4ccccc4)CC3)nnc12 | -36.2% | 0% | 6.69% | -27.5% | 0.948%
42 | O=C(NCc1ccc(F)cc1)c1cnc2n[nH]c(-c3ccccc3)c2n1 | -20% | -20.2% | -18.9% | -28.8% | -22.6%
43 | CC(Cn1cncn1)Nc1ccc(-c2nc(Cc3ccc(F)cc3)no2)cn1 (centres undefined) | -3.13% | -0.508% | -1.05% | -6.56% | -1.41%
44 | Nc1nc2c(ncn2COC(CO)CO)c(=O)[nH]1 | -2.41% | 8.11% | 1.47% | -2.33% | 8.21%
45 | CC(C)=CCC/C(C)=C/CO[C@@H]1O[C@H](CO)[C@@H](OC(=O)/C=C/c2ccc(O)cc2)[C@H](O[C@@H]2O[C@@H](C)[C@H](O)[C@@H](O)[C@H]2O)[C@H]1O | 0.329% | 1.09% | 5.79% | -8.75% | -3.89%
46 | CC(=O)N1Cc2ccccc2CC2(CCN(Cc3ccc(O)cc3)CC2)C1 | -7.34% | -8.21% | -12.1% | -23.2% | -9.29%
47 | O=C1N(C2CCCCC2)C[C@H]2CN(S(=O)(=O)c3ccccc3)CCN12 | 0.295% | 7.31% | 1.36% | -2.99% | -1.91%
48 | CC(C)=CCC[C@](C)(O[C@@H]1O[C@H](CO[C@@H]2OC[C@H](O)[C@H](O)[C@H]2O)[C@@H](O)[C@H](O)[C@H]1O)[C@H]1CC[C@]2(C)[C@@H]1[C@H](O)C[C@@H]1[C@@]3(C)CC[C@H](O[C@@H]4O[C@H](CO)[C@@H](O)[C@H](O)[C@H]4O[C@@H]4O[C@H](CO)[C@@H](O)[C@H](O)[C@H]4O)C(C)(C)[C@@H]3CC[C@]12C | 4.14% | – | 9.06% | – | –
49 | CC(C)CCn1c(=O)c2ccc(C(=O)NC(C)C)cc2n2c(=O)n(CC(=O)NC3CCCCC3)nc12 | 4.23% | 4.41% | 6.32% | 0.769% | -0.609%
50 | CC(C)c1ccc(C(O)Cn2ccn3nc(-c4ccc(F)cc4)cc3c2=O)cc1 (centres undefined) | -1.7% | 1.2% | -1.03% | 2.06% | 1%
51 | CC1(C(=O)NCc2ccccc2)Cn2c(nc3ccccc32)C(=O)N1Cc1ccc(Cl)cc1 (centres undefined) | 2.08% | 0.679% | 3.04% | 3.7% | 0.228%
52 | COc1cccc(C2=NOC(C(=O)NCc3ccccn3)C2)c1 (centres undefined) | -4.95% | 3.41% | -0.174% | 6.77% | -5.88%
53 | CCOCCCNC(=O)C1c2c(n(C)c3ccccc23)SCC(=O)N1c1ccc(OC)cc1 (centres undefined) | 12.7% | 2.25% | 5.86% | 0.269% | 12.3%
54 | COc1ccc(CCNS(=O)(=O)c2ccc3[nH]c(=O)[nH]c3c2)cc1OC | -4.26% | 2.08% | 11.5% | 3.37% | 1.95%
